# PubChem BioAssay AID1030 (National Center for Advancing Translational Sciences (NCATS), 2008)
# Where “and” joins values, the source holds several entries; their conditions need not be identical. Equal values may be shown once. Screen size: about 220,000 compounds; about 16,000 (7.3%) were called active. Inconclusive results, whose numbers are uncertain, are shown with a selection of clear calls. Calls come from the whole dose curve; as a rule, active = well fitted inhibition curve with a large enough effect (not every such curve was filed as active); inconclusive = small, poorly fitted or top-dose-only effect, or another doubt; inactive = no such curve, though single readings can be large or run the other way. Potencies of inconclusive entries are doubtful fits and often do not repeat. Some structures have more than one record in an assay (separate samples or runs), and their calls can disagree.
# Target: Aldehyde dehydrogenase 1A1 (Homo sapiens) (UniProt P00352)
# Assay: qHTS Assay for Inhibitors of Aldehyde Dehydrogenase 1 (ALDH1A1);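 for activity, negative = inhibition: plate controls were no enzyme wells and a reference inhibitor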
# Settings: Purified ALDH1A1, NADH fluorescence, propionaldehyde substrate; series mostly up to 75.3 µM; activity, negative = inhibition: at the top concentration
# Potency is the fitted concentration of half-maximal effect; tags give direction and shape of the fitted curve.
# Sequence of UniProt P00352 (P00352 whole entry, looked up): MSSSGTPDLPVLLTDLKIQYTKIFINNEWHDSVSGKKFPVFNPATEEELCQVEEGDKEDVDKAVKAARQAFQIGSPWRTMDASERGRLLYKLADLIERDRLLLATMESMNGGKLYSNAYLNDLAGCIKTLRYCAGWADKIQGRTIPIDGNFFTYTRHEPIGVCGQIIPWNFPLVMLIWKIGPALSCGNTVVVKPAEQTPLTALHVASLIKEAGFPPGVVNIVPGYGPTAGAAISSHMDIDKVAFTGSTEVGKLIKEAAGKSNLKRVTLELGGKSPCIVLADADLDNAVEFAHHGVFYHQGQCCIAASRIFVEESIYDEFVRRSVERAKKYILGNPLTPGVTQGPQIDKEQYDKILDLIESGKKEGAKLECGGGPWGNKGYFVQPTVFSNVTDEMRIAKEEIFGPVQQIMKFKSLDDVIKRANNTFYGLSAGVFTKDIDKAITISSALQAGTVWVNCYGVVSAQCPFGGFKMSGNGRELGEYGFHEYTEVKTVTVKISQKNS
SMILES,"activity, negative = inhibition",Potency
O=c1[nH]cnc2[nH]cc(CN3CCCCC3)c12,inactive: 4.31% [at 13.5 µM],–
CNC1C2CN3CCC(O2)C13 (stereo not drawn),inactive: -3.21%,–
CCCc1[nH][nH]c(=O)c1C(c1ccc(Cl)cc1)C(C#N)C#N (stereo not drawn),–,"inconclusive: 23.8 µM [inhibitor, single point]"
Cc1ccc([N+](=O)[O-])cc1C,–,"inconclusive: 39.8 µM [inhibitor, single point]"
O=C1Nc2cc(Cl)c(Cl)cc2N2CCNC[C@H]12,–,"inconclusive: 37.7 µM [inhibitor, single point]"
CS(=O)(=O)NNP(=O)(NNS(C)(=O)=O)NC(=O)c1ccc(Br)cc1,–,"inconclusive: 39.8 µM [inhibitor, single point]"
O=C(c1cnn2c(C(F)(F)F)cc(-c3ccccc3)nc12)N1CCC2(CC1)OCCO2,–,"inconclusive: 39.8 µM [inhibitor, single point]"
CCOc1cc(C=C2C(=O)NC(=O)NC2=O)ccc1OCC(=O)N1CCOCC1,–,active: 35.5 µM
N#Cc1cc(F)c(N2CCNCC2)cc1Cl,–,"inconclusive: 39.8 µM [inhibitor, single point]"
O=Nc1ccc(Nc2ccccc2)cc1,–,active: 0.0631 µM
CCCCCc1nc2c(c(=O)c3ccccc3n2C)c(=O)n1C1CCCCCC1,–,active: 3.55 µM
CCCCCCCCOC(=O)c1ccccc1C(=O)OCCCCCCCC,–,active: 25.1 µM
O=c1[nH]c(=S)[nH]c(O)c1N=Nc1ccc(S(=O)(=O)N2CCc3ccccc32)cc1,–,active: 6.31 µM
Cc1ccc2c(c1)CCCN2N=O,–,"inconclusive: 37.7 µM [inhibitor, single point]"
Cc1cc(C=C2C(=O)NC(=O)NC2=O)c(C)n1-c1ccc2c(c1)OCO2,–,"inconclusive: 20 µM [inhibitor, partial curve]"
C(CCOCC1CO1)COCC1CO1 (stereo not drawn),inactive: -13.7%,–
COCCCOc1ccnc(CS(=O)c2nc3ccccc3[nH]2)c1C (stereo not drawn),–,active: 5.97 µM
CN1C(=O)C(=Cc2ccc(N(C)C)c([N+](=O)[O-])c2)C(=O)N(C)C1=O,–,"inconclusive: 3.16 µM [inhibitor, full curve]"
Nc1cc(Cl)c2nonc2c1[N+](=O)[O-],–,active: 20 µM
Nc1ccccc1N=Cc1c(O)n(CCC2=CCCCC2)c(=O)[nH]c1=O,–,active: 2.82 µM
C=CC=O,–,active: 0.0224 µM
BrCC(Br)(Br)Br,–,active: 2 µM
CCC(=NCc1ccco1)c1c(O)n(-c2ccc(C)cc2)c(=O)[nH]c1=O,–,"inconclusive: 35.5 µM [inhibitor, single point]"
O=C1C=CC[C@@H]2[C@H]3CCCN4CCC[C@@H](CN12)[C@@H]34,inactive: 2.08%,–
Oc1c(Br)c(Br)c(Br)c(Br)c1Br,–,"inconclusive: 39.8 µM [inhibitor, single point]"
CC(C)(C#N)O[C@H]1OC(CO)C(O)C(O)C1O (stereo partly drawn),inactive: 4.94%,–

SMILES,"activity, negative = inhibition",Potency
Cc1ccc(-c2nc3ccccc3c(=O)n2-c2cccc(O)c2)cc1,–,"inconclusive: 22.4 µM [inhibitor, single point]"
Cc1oc2ccc(OC(=O)N3CCOCC3)cc2c1C(=O)OC(C)C,–,active: 3.98 µM
CCNc1nc(Cl)nc(NC(C)C)n1,–,inactive
CNC(=O)CSP(=S)(OC)OC,–,"inconclusive: 39.8 µM [inhibitor, single point]"
CCN1CCN(C(=O)COc2ccc3c(c2)C(=O)CC2(CCN(C(C)=O)CC2)O3)CC1,–,"inconclusive: 28.2 µM [inhibitor, partial curve]"
CC(=O)O[C@H]1C[C@@H](O[C@@H]2[C@H](C)O[C@H](O[C@@H]3[C@H](C)O[C@H](O[C@@H]4CC[C@@]5(C)[C@@H](CC[C@]6(C)[C@]5(C)C[C@H](O)[C@]5(C)[C@@H](C7=CC(=O)OC7)CC[C@@]56O)C4)C[C@@H]3O)C[C@@H]2O)O[C@@H](C)[C@H]1O[C@H]1O[C@@H](CO)[C@@H](O)[C@@H](O)[C@@H]1O,inactive: 25.1% [at 20.9 µM],–
COCCNC(=O)c1ccc(N2CC3CC(C2)c2cccc(=O)n2C3)c([N+](=O)[O-])c1 (stereo not drawn),–,"inconclusive: 39.8 µM [inhibitor, single point]"
COc1cccc(C(=O)C2CCCN(Cc3ccc4nonc4c3)C2)c1 (stereo not drawn),inactive: -2.69%,–
Cc1ccc(S(=O)(=O)N2CCC(C(=O)N3CCC4(CC3)OCCO4)CC2)cc1,inactive: 2.81%,–
OC1(c2ccc(F)cc2)CC2CCC(C1)N2Cc1nnnn1C1CCCC1 (stereo not drawn),–,active: 2 µM
C=CCN1CC[C@]23CCCCC2[C@H]1Cc1ccc(O)cc13 (stereo partly drawn),–,inactive
Cc1ccccc1Cn1cnc2c(oc3ccccc32)c1=O,–,"inconclusive: 20 µM [inhibitor, partial curve]"
O=C(N/N=C/c1c(O)n(CCc2ccc(F)cc2)c(=O)[nH]c1=O)c1ccncc1,–,"inconclusive: 20 µM [inhibitor, partial curve]"
Cc1nc2cc(C(=O)N3CCC4(CC3)OCCO4)ccc2n1-c1ccc(Br)cc1,–,"inconclusive: 14.1 µM [inhibitor, partial curve]"
O=C(c1ccco1)c1cn(Cc2ccc(Cl)cc2)c2ccccc12,inactive: 4.12%,–
CN[C@@H](C)[C@H](O)c1ccccc1,–,active: 0.501 µM
CCCC/C(=N\O)c1c[nH]c2ccccc12,inactive: 4.41%,–
Nc1ccc(Cl)cc1,inactive: 1.97%,–
O=C1NC(=S)N(c2ccc(F)cc2)C(=O)/C1=C\c1ccoc1,–,"inconclusive: 39.8 µM [inhibitor, single point]"
CCOC(=O)N(CC)c1ccc(C(O)(C(=O)OCC)C(F)(F)F)cc1 (stereo not drawn),inactive: 2.84%,–
CCOC(=O)CBr,–,"inconclusive: 35.5 µM [inhibitor, single point]"
Fc1ccc(Cn2nnnc2C(c2ccc(Cl)cc2)N2CC=C(c3ccc(F)cc3)CC2)cc1 (stereo not drawn),–,"inconclusive: 39.8 µM [inhibitor, single point]"
CCCCN1C(=O)NC(=O)C2(Cc3c(nc4ccccn4c3=O)N3CCc4ccccc4C32)C1=O (stereo not drawn),–,"inconclusive: 35.5 µM [inhibitor, single point]"
CCN(CC)c1nc2c(C)cccn2c(=O)c1C=C1C(=O)NC(=O)NC1=O,–,"inconclusive: 20 µM [inhibitor, partial curve]"
O=c1c2ccccc2[se]n1-c1ccccc1,–,active: 126 nM and active: 447 nM and active: 224 nM
Cc1ccccc1-n1c(C)nc2sccc2c1=O,–,"inconclusive: 39.8 µM [inhibitor, single point]"

SMILES,"activity, negative = inhibition",Potency
CC(C)n1c(=O)c(C=Nc2ccc(Br)cc2)c(O)n(Cc2ccco2)c1=O,–,active: 14.1 µM
COc1ccc(CCNCc2cccc(C(F)(F)F)c2)cc1OC,inactive: -7.55%,–
CN(C)S(=O)(=O)c1cc(NC(=O)COC(=O)Cc2ccccc2)ccc1Cl,–,"inconclusive: 22.4 µM [inhibitor, single point]"
CCCN(CCC)C1Cc2cc(OC)c(OC)cc2C1,–,active: 22.4 µM
CC1CCC(C(C)C)C(OC(=O)c2ccccc2N)C1 (stereo not drawn),–,"inconclusive: 28.2 µM [inhibitor, partial curve]"
COc1cc(OC)cc(C(=O)N2CCC(N3CCN(c4ccccc4)CC3)CC2)c1,–,"inconclusive: 39.8 µM [inhibitor, single point]"
COc1ccc(CCNCc2ccncc2)cc1OC,–,active: 12.6 µM
CCCc1cc2c(n1Cc1ccco1)C(C)C1CN(C(=O)c3ccccc3)C(C)(C(=O)OC)C21 (stereo not drawn),–,"inconclusive: 8.91 µM [inhibitor, partial curve]"
CC(=O)Nc1ccc(OC(=O)N(C)c2ccccc2)cc1,inactive: 6.29%,–
S=c1[nH]c2ccccc2[nH]1,–,"inconclusive: 39.8 µM [inhibitor, single point] and inconclusive: 3.16 µM [inhibitor, partial curve, poor fit]"
O=C(Cn1c(=O)c(C(F)(F)F)nc2ccccc21)N1CCC2(CC1)OCCO2,–,"inconclusive: 39.8 µM [inhibitor, single point]"
N[C@@H](Cc1c[nH]c2ccccc12)c1nnc(SCc2c(F)cccc2Cl)o1,–,"inconclusive: 37.7 µM [inhibitor, single point]"
O=C(CNC1CCCCC1)N1CCC2(CC1)OCCO2,–,"inconclusive: 39.8 µM [inhibitor, single point]"
S=c1[nH]nc(-c2ccccc2)n1CC1CCCO1 (stereo not drawn),–,"inconclusive: 39.8 µM [inhibitor, single point]"
Cc1ccc2c(c1)CC1(CN2C)C(=O)NC(=O)N(CCc2ccccc2)C1=O (stereo not drawn),–,"inconclusive: 39.8 µM [inhibitor, single point]"
Clc1ccc(OCCCN2CCCC2)cc1Cl,–,"inconclusive: 28.2 µM [inhibitor, single point]"
C[N+](C)(C)CC(=O)[O-],inactive: -1.55%,–
O=c1[nH]c(=O)n(C2CCCCCC2)c(O)c1C=NC1CCN(Cc2ccccc2)CC1,–,"inconclusive: 28.2 µM [inhibitor, single point]"
O=C(c1cc(-c2ccccc2)on1)N1CCC2(CC1)OCCO2,inactive: 1.92%,–
O=C(O)CP(=O)(O)c1ccc(Cl)cc1,inactive: -1.15%,–
Cc1ccc(N2C(=O)NC(=O)/C(=C\c3ccc([N+](=O)[O-])o3)C2=O)cc1,–,"inconclusive: 39.8 µM [inhibitor, single point]"
CS/C(N)=C(C#N)/C(C#N)=C(\N)SC,–,active: 7.08 µM
CCN(CC)CCN=Cc1c(O)n(Cc2ccccc2)c(=O)[nH]c1=O,inactive: 8.28%,–
O=C(CNC(=O)OCc1ccccc1)Nc1ccc(Br)cc1C(=O)c1ccccc1,inactive: -2.38%,–
COc1ccc2[nH]cc(CCN(C)C)c2c1,–,inactive
Cn1c(O)c(C=Nc2ccc3c(c2)CCC3)c(=O)n(C)c1=O,–,"inconclusive: 31.6 µM [inhibitor, partial curve]"
